Measurements published in article PMC6919601, “Identification of Plasmodium dipeptidyl aminopeptidase allosteric inhibitors by high throughput screening” (PLoS ONE, 2019).
Out of some 110,000 compounds screened, about 230 (0.21%) showed an effect of 50% or more. The list shows a part of the results.

Target: DPAP1 (Plasmodium falciparum, UniProt Q8IIJ9)
Experiment: primary screen, percent inhibition; read by cleavage of a fluorogenic dipeptide substrate; higher = more effect of the substance
Parameters: species or system P. falciparum D10 trophozoite lysates; single well
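Note: 30 min substrate incubation versus DMSO and 10 µM JCP410 controls.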

Sequence of DPAP1 (Q8IIJ9 whole entry, looked up): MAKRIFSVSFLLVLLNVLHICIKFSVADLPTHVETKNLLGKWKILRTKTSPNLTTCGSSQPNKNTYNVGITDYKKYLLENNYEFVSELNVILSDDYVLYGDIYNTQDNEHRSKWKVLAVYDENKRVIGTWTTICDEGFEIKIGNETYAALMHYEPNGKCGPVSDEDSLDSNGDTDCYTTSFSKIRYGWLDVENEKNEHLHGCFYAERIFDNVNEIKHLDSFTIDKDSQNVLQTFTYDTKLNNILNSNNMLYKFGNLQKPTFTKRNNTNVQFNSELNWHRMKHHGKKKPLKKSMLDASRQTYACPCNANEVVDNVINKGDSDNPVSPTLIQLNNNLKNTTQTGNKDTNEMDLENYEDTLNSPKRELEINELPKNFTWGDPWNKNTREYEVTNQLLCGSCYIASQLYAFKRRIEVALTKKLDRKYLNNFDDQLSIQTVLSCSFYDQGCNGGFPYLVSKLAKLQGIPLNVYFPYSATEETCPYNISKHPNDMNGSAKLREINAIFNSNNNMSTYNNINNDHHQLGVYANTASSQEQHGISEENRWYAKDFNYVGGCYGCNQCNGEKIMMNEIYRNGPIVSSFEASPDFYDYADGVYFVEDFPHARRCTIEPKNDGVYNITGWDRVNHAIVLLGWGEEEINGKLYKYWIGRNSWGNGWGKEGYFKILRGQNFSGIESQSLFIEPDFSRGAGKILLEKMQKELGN

| Structure (SMILES) | % Inhibition @ 10 uM |
| --- | --- |
| Cc1cccc(-n2nc(C)c(/C=N/C(=O)NCCc3ccccc3)c2O)c1 | 3.05% |
| CC1CC(OC(=O)c2ccccc2)(c2ccccc2)C(C)CN1C (centres unmarked) | 3.34% |
| CC1(C)CC2CC(C)(CN2C(=O)/C(=C/c2ccco2)NC(=O)c2ccccc2)C1 (centres unmarked) | -0.996% |
| CC1CC(C)CN(C(=O)Cn2nc(Cc3ccncc3)c3ccccc3c2=O)C1 (centres unmarked) | 2.04% |
| CCN1C(=O)S/C(=C/c2cn(CC(=O)O)c3ccccc23)C1=O | 8.69% |
| O=C(N[C@H](/C=C/S(=O)(=O)c1ccccc1)CCc1ccccc1)[C@H](Cc1ccccc1)NC(=O)N1CCNCC1 | 2.22% |
| CCc1c(C)sc(NC(=O)C2CCCCC2)c1C(N)=O | 0.331% |
| CCN(CC)S(=O)(=O)c1ccc(NC(=O)C(c2ccccc2)c2ccccc2)cc1 | -1.17% |
| Cc1nn(CC(=O)NC2CCCC(C)C2C)c2ccccc12 (centres unmarked) | -6.6% |
| O=C(c1ccccc1)N1N=C(c2ccco2)CC1c1cccs1 (centres unmarked) | -6.17% |
| COc1ccc(C(=O)N2CCN(Cc3cccc(OC)c3OC)CC2)cc1 | -20.7% |
| COCCN1C(=O)c2ccccc2C(C(=O)NC2CCCCC2)C1c1ccc(F)cc1 (centres unmarked) | 1.26% |
| O=S(=O)(NCCc1ccccc1)c1cccc2nsnc12 | 4.88% |
| Cc1ccc(Cn2cc(CO)c3ccccc32)cc1 | -4.75% |
| CS(=O)(=O)N(CC(=O)N1CCN(Cc2ccccc2)CC1)c1cccc(F)c1 | -3.19% |
| CC(C)c1nnc2sc(NC(=O)c3ccccc3)nn12 | 4.86% |
| Cc1ccc2nc(NC(=O)COC(=O)c3ccc(Br)o3)sc2c1 | 27.4% |
| CC[C@H](NC(=O)[C@H](CC1CCCCC1)OC(=O)N1CCOCC1)C(=O)c1nnc(-c2ccccc2)o1 | -3.48% |
| COc1ccc(C2=NOC(C(=O)N3CCC(C)CC3)C2)cc1 (centres unmarked) | 1.42% |
| COc1ccccc1NC(=O)c1cnn2c1NC(c1ccc(Br)cc1)CC2C(F)(F)F (centres unmarked) | -5.69% |
| CC(C)c1ccc(CC(NC(=O)c2ccccc2)C(=O)NCC(=O)O)cc1 (centres unmarked) | 1.84% |
| Cc1ccc(C(=O)N/C(=C\c2ccc3c(c2)OCO3)C(=O)NC(CC(C)C)C(=O)O)cc1 (centres unmarked) | 1.91% |
| Cc1ccc2c(c1)c(=O)c1c3n2CCNC3CC1 (centres unmarked) | -4.02% |
| COc1ccc(N2C(=O)C3C4CCC(C4)C3C2=O)cc1 (centres unmarked) | 2.45% |
| Cn1cc(NC(=O)Nc2ccccn2)c2ccccc2c1=O | -2.95% |

| Structure (SMILES) | % Inhibition @ 10 uM |
| --- | --- |
| CC(C)c1ccc(C2N3CC4(C)CN2CC(C)(C3)C4)cc1 (centres unmarked) | 1.62% |
| O=C(OCCN1CCCCC1)C(O)(c1ccccc1)c1ccccc1 | 8.68% |
| CCOc1ccc(C2=Nn3c(nnc3-c3ccc(OC)cc3)SC2)cc1 | 5.12% |
| COc1ccc(S(=O)(=O)NCCc2cc3ccc(C)cc3nc2O)cc1 | -0.396% |
| CCOC(=O)C1CCCCN1Cc1ccc(F)cc1 (centres unmarked) | 3.1% |
| COc1ccc(Cl)cc1-c1nc(-c2ccc(NC(=O)c3ccccn3)cc2)no1 | 0.993% |
| COc1ccc(Cn2c(C(=O)O)c(CNCc3ccccc3C)c3ccc(OC)cc32)cc1 | 4.41% |
| CC1CCC(NC(=O)c2csc3c2CCC(C)C3)CC1 (centres unmarked) | -5.05% |
| CC(NC(=O)c1ccccc1)c1nc2ccccc2[nH]1 (centres unmarked) | 3.49% |
| Cc1cccn2cc(CCN3C(=O)c4ccccc4C3=O)nc12 | 0.161% |
| Cc1ccc(-n2nc(C)c(/C=N/c3ccc4[nH]c(O)nc4c3)c2O)cc1C | -0.736% |
| Cc1ccsc1-c1ncnn1-c1cccc(Cl)c1C | -0.0953% |
| CN(CC(=O)N1CCCCCC1)S(=O)(=O)c1cccc2cccnc12 | -2.42% |
| O=C(Nc1ccccc1NC(=O)c1ccncc1)c1ccncc1 | 0.13% |
| CCOc1ccc(CCNC(=O)C2CC(=O)OC2c2ccc(OC)c(OC)c2)cc1 (centres unmarked) | -6.52% |
| Cc1ccc(N(CC(=O)NCc2ccncc2)S(=O)(=O)c2ccc(F)cc2)cc1 | -0.67% |
| COc1ccc(NC(=O)C2=C(C)Nc3nc(-c4ccccc4)nn3C2c2ccncc2)cc1 (centres unmarked) | -7.17% |
| O=C(NCc1ccc2c(c1)OCO2)C1CCCN(S(=O)(=O)c2cccnc2)C1 (centres unmarked) | 4.01% |
| COc1ccc2[nH]c3c(=O)n(CCCC(=O)NCC4CCCO4)c(=S)[nH]c3c2c1 (centres unmarked) | -7.65% |
| CCOc1cc(C2C3=C(O)CCCC3=NC(C)=C2C(=O)OC)ccc1O (centres unmarked) | 5.7% |
| Cc1ccccc1-n1c(O)cc(=O)[nH]c1=S | 2.41% |
| CCOC(=O)NCc1nc2nc(C)cc(C(F)(F)F)n2n1 | 2.84% |
| COc1cc2c(cc1OC)CN(Cc1ccc(Br)o1)CC2 | 3.01% |
| CC(C)Oc1ccc(C(=O)N(Cc2ccc(Cl)cc2)Cc2ccco2)cc1 | -0.45% |
| O=C(CCN1C(=O)S/C(=C\c2ccc(Cl)cc2)C1=O)N1CCOCC1 | 4.1% |

| Structure (SMILES) | % Inhibition @ 10 uM |
| --- | --- |
| CS(=O)(=O)C1=NN2C(=N)/C(=C\c3cccc4ccccc34)C(=O)N=C2S1 | -1.58% |
| COC(=O)C1=C(O)/C(=C/c2cccc(OC)c2O)N=C1C | 0.131% |
| O=C(Nc1cccnc1)c1cc(-c2ccc(O)cc2)on1 | 0.723% |
| O=C(NCCc1ccccc1)c1cc(F)c(F)cc1Cl | -5.36% |
| O=C(Nc1ccc(F)c(Cl)c1)c1cc2n(n1)C(C(F)(F)F)CC(c1ccco1)N2 (centres unmarked) | -4.16% |
| CCCCC1(C)OC(=O)C(=Cc2ccc(SC)cc2)C(=O)O1 (centres unmarked) | 2.84% |
| Fc1ccc(N2N=C(c3cccs3)CC2c2ccccc2C(F)(F)F)cc1 (centres unmarked) | -1.59% |
| COc1ccccc1CC(=O)Nc1ccc2c(c1)C(=O)NC2=O | 0.993% |
| N#Cc1cc2c(=O)n3ccccc3nc2n(Cc2ccco2)c1=O | 2.73% |
| CCn1c(=N)n(CCc2ccccc2)c2ccccc21 | -6.65% |
| CC1(C)Cc2c(sc(NC(=O)c3ccc(F)cc3)c2C#N)C(C)(C)N1 | 3.59% |
| CCC(Oc1ccccc1)C(=O)NC(C)C1CC2CCC1C2 (centres unmarked) | -3.97% |
| O=C(Nc1ccc2ccccc2c1)c1ccc(Cl)s1 | 2.7% |
| O=C(O)CNS(=O)(=O)c1ccc(C(=O)O)cc1 | 0.565% |
| O=C(O)c1ccc(CNCc2cccc(OCc3ccccc3)c2)cc1 | 1.42% |
| C=CCc1cccc2cc(C(=O)OCC)c(=O)oc12 | -2.51% |
| Cc1ccc(NC(=O)COc2ccc(Cl)cc2)c(C)c1 | -3.94% |
| Cc1ccc(Nc2nc(Cl)nc(NCc3ccccc3)n2)cc1 | -6.52% |
| Cc1ccccc1C1=N/C(=C2/OC(=O)c3ccccc32)C(=O)O1 | -2.27% |
| COc1ccc(C(=O)C2=C(O)C(=O)N(c3cc(C)on3)C2c2ccc(C(C)(C)C)cc2)cc1OC (centres unmarked) | 1.05% |
| Cn1nc(-c2ccccc2F)c2cc(C(=O)NCc3ccc4c(c3)OCO4)sc21 | 0.317% |
| CCN(Cc1ccccc1)C(=O)c1cccc([N+](=O)[O-])c1C | -1.22% |
| CC1=NN(C(=O)c2ccc(Cn3nc(C)cc3C)o2)C(O)(C(F)(F)F)C1 (centres unmarked) | 2.08% |
| CC(C)C[C@H](NC(=O)c1ccccc1)C(=O)NC1CCN(Cc2ccccc2)C1 (some centres unmarked) | -4.82% |
| COc1ccc(C2CC(c3c(O)cc(C)oc3=O)=Nc3ccccc3S2)cc1O (centres unmarked) | 3.31% |

| Structure (SMILES) | % Inhibition @ 10 uM |
| --- | --- |
| Cc1cc(C)c2oc(C(=O)NCc3ccccc3)cc(=O)c2c1 | -6.98% |
| Cc1cc(NS(=O)(=O)c2ccc(NC(=O)C(C)Oc3ccc(F)cc3)cc2)nc(C)n1 (centres unmarked) | -5.14% |
| Cc1nc(C)c(-c2ccc(SCC(=O)NC3CCCC3)nn2)s1 | -2.26% |
| CCc1c(C)nc(N)nc1OCC(F)(F)C(F)F | -3.27% |
| Fc1ccc(N2CCN(Cc3ccc(Br)o3)CC2)cc1 | -1.92% |
| CCN(CC)S(=O)(=O)c1ccc(C(=O)OCCNC2=NS(=O)(=O)c3ccccc32)cc1 | -2.14% |
| COc1ccc2c(c1)nc(SCC(C)O)n2C (centres unmarked) | 15.6% |
| O=C(O)CCc1nc2cccnc2n1Cc1cccs1 | 4.74% |
| Cc1ccccc1Cn1cc(NC(=O)c2cc(C3CC3)on2)cn1 | -4.43% |
| O=C(NCc1ccco1)c1cccc(S(=O)(=O)N2CC(c3ccccc3)CC2=O)c1 (centres unmarked) | -2.63% |
| CC1CCc2c(sc(NC(=O)CCc3ccccc3)c2C(N)=O)C1 (centres unmarked) | -7.9% |
| COc1ccc(C(=O)N2CCN(c3cc(C)cc(C)c3)CC2)cc1OC | 5.03% |
| CCN(CC)C(=O)C1CCCN(Cc2ccc(Br)s2)C1 (centres unmarked) | -2.56% |
| Cc1ccc(NC(=O)/C=C/c2cccc([N+](=O)[O-])c2)c(Br)c1 | -2.54% |
| COC(=O)c1ccc(-n2c(C)cc(/C=C3\NC(=O)NC3=O)c2C)cc1 | 4.66% |
| COc1ccc(CNS(=O)(=O)c2ccc(-c3cc(C(F)(F)F)no3)s2)cc1 | 3.57% |
| COc1ccc(NC(=O)CN(c2ccc(Br)cc2)S(C)(=O)=O)cc1 | -1.43% |
| Cc1ccc(C(c2c(C)n(C)n(-c3ccccc3)c2=O)c2c(C)n(C)n(-c3ccccc3)c2=O)cc1 | 0.467% |
| COc1ccc(-n2ncc(C(=O)NCc3ccccn3)c2C2CCN(C(=O)OC(C)(C)C)CC2)cc1 | -6.76% |
| Cc1oc(-c2cccs2)nc1CSc1nc2cccnc2[nH]1 | 0.95% |
| Cc1nc2c(c(C)nn2-c2ccccc2)c(C)c1CCC(=O)N1CC(C)CC(C)C1 (centres unmarked) | 2.37% |
| O=C(NCc1ccncc1)C1CC1c1ccccc1 (centres unmarked) | -2.84% |
| CC(C)C[C@H](NC(=O)N1CCN(c2ncc(C(F)(F)F)cc2Cl)CC1)C(=O)NCC#N | -0.207% |
